Experimental data as given in patent publication US9833497B2, “Human originated EGF domain proteins and use of the same” (CHENGDU SOURCEBIO LIMITED-LIABILITY COMPANY, priority 2013, dated 2017).

Tests used:
Format in all cases: cell-based
[1] = system: Moraxella catarrhalis; assay: MIC against Gram-negative bacteria: Moraxella catarrhalis; details: for MIC (μg/mL) M. catarrhalis / MIC M. catarrhalis: 5×10^5 CFU/mL; for MIC M. catarrhalis: 96-well plate, 37° C., 10 h
Method: (§1) 1. Gram-negative bacteria, such as E. coli BL21, Pseudomonas aeruginosa, Klebsiella pneumonia, Enterobacter cloacae, Aeromonas hydrophila, Citrobacter diversus, Moraxella catarrhalis, Proteus mirabilis, Proteus vulgaris, Serratia marcescens, etc were streaked on solid LB medium and cultured respectively. Then, typical clones were picked, inoculated into common liquid LB medium respectively, and cultured at 37° C. with shaking at 185 rpm until the McFarland specific turbidity was 0.5. The bacterial culture of each of Gram-negative bacteria was centrifuged at 4000×g for 3 min, the supernatant was discarded, and the thalli were resuspended with fresh LB medium.
(§2) 2. The above-mentioned bacterial suspensions were diluted and inoculated into 96-well plates with the final concentration of the bacterial suspension being 5×10^5 CFU/mL per well.
(§3) 3. Each of the purified human-originated EGF domain proteins (PRT1 to PRT1498 in Table 1) was added to each of the above wells and subjected to two-fold serial dilution in concentration. Three parallel wells were set up for each concentration in the gradient.
(§4) 4. The above-mentioned 96-well plates were placed and cultured at 37° C. in shaking incubator shaking at 175 rpm. […] The minimal inhibitory concentration MIC is defined as the lowest concentration of the recombinant protein at which there is no growth of the bacteria.

[2] = system: Aeromonas hydrophila; assay: MIC against Gram-negative bacteria: Aeromonas hydrophila; details: for MIC (μg/mL) A. hydrophila / MIC A. hydrophila: 5×10^5 CFU/mL; for MIC A. hydrophila: 96-well plate, 37° C., 10 h
Method: as §1, §2, §3, §4

[3] = system: Proteus mirabilis; assay: MIC against Gram-negative bacteria: Proteus mirabilis; details: for MIC (μg/mL) P. mirabilis / MIC P. mirabilis: 5×10^5 CFU/mL; for MIC P. mirabilis: 96-well plate, 37° C., 10 h
Method: as §1, §2, §3, §4

[4] = system: Serratia marcescens; assay: MIC against Gram-negative bacteria: Serratia marcescens; details: for MIC (μg/mL) S. marcescens / MIC S. marcescens: 5×10^5 CFU/mL; for MIC S. marcescens: 96-well plate, 37° C., 10 h
Method: as §1, §2, §3, §4

[5] = system: E. coli BL21; assay: MIC against Gram-negative bacteria: E. coli BL21; details: for MIC (μg/mL) E. coli BL21 / MIC E. coli BL21: 5×10^5 CFU/mL; for MIC E. coli BL21: 96-well plate, 37° C., 10 h
Method: as §1, §2, §3, §4

[6] = system: Klebsiella pneumonia; assay: MIC against Gram-negative bacteria: Klebsiella pneumonia; details: for MIC (μg/mL) K. pneumonia / MIC K. pneumonia: 5×10^5 CFU/mL; for MIC K. pneumonia: 96-well plate, 37° C., 10 h
Method: as §1, §2, §3, §4

[7] = system: Pseudomonas aeruginosa; assay: MIC against Gram-negative bacteria: Pseudomonas aeruginosa; details: for MIC (μg/mL) P. aeruginosa / MIC P. aeruginosa: 5×10^5 CFU/mL; for MIC P. aeruginosa: 96-well plate, 37° C., 10 h
Method: as §1, §2, §3, §4

[8] = system: Citrobacter diversus; assay: MIC against Gram-negative bacteria: Citrobacter diversus; details: for MIC (μg/mL) C. diversus / MIC C. diversus: 5×10^5 CFU/mL; for MIC C. diversus: 96-well plate, 37° C., 10 h
Method: as §1, §2, §3, §4

[9] = system: Proteus vulgaris; assay: MIC against Gram-negative bacteria: Proteus vulgaris; details: for MIC (μg/mL) P. vulgaris / MIC P. vulgaris: 5×10^5 CFU/mL; for MIC P. vulgaris: 96-well plate, 37° C., 10 h
Method: as §1, §2, §3, §4

[10] = system: Enterobacter cloacae; assay: MIC against Gram-negative bacteria: Enterobacter cloacae; details: for MIC (μg/mL) E. cloacae / MIC E. cloacae: 5×10^5 CFU/mL; for MIC E. cloacae: 96-well plate, 37° C., 10 h
Method: as §1, §2, §3, §4

[11] = system: E. coli DH5α; assay: Antibacterial activity: MIC and growth curve against E. coli DH5α in 96-well plate; details: minimal inhibitory concentration against E. coli DH5α, 5×10^5 CFU/mL, 37° C., judged after 8 h
Method: 1. E. coli DH5α was exemplified. E. coli DH5α was streaked and cultured on LB solid medium. Then, a typical clone was picked and inoculated into common LB liquid medium, cultured at 37° C. with shaking at 185 rpm until the logarithmic growth phase was reached (OD600 of about 0.5). The bacterial culture was centrifuged at 4000×g for 3 min, the supernatant was discarded, and the thalli were resuspended with fresh LB medium.
2. The above-mentioned bacterial suspension was diluted and inoculated into a 96-well plate with the total volume of 100 μL per well and a bacterial count of 5×10^5 CFU/mL.
3. The recombinant protein hF VII-EGF1 was added to the above-mentioned wells with the final protein concentration in the well of the highest protein concentration being 50 μg/mL. Basing on this final concentration, a two-fold serial dilution was performed till a protein concentration gradient consisting of 50, 25, and 12.5 μg/mL was set up. Three parallel wells were set up for each concentration in the gradient.
as §4, with “plate was” for “plates were”, “rpm. Samples were taken every 30 min, the absorbance values were determined at 600 nm wavelength under a ultra violet spectrophotometer, and an inhibition curve was plotted.” for “rpm.”
According to the experimental procedures in Example 14, the minimal inhibitory concentrations (MIC, μg/mL) of the other human-originated EGF domain proteins (PRT2 to PRT1498 in Table 1) for E. coli DH5α were determined.

[12] = M. catarrhalis, 10 h cultivation at 37° C.
[13] = A. hydrophila, 10 h cultivation at 37° C.
[14] = P. mirabilis, 10 h cultivation at 37° C.
[15] = S. marcescens, 10 h cultivation at 37° C.
[16] = E. coli BL21, 10 h cultivation at 37° C.
[17] = K. pneumonia, 10 h cultivation at 37° C.
[18] = P. aeruginosa, 10 h cultivation at 37° C.
[19] = C. diversus, 10 h cultivation at 37° C.
[20] = P. vulgaris, 10 h cultivation at 37° C.
[21] = E. cloacae, 10 h cultivation at 37° C.

“PRT868 (CQCHPIGATGGTCNQTSGQCTCKLGVTGLTCNRCGPGYQQSRSPRMPCQR; listed as Homo sapiens)” was tested, and the “MIC (μg/mL) M. catarrhalis” value [1, 12] was 25 µg/mL, the “MIC (μg/mL) A. hydrophila” value [2, 13] was 25 µg/mL and the “MIC (μg/mL) P. mirabilis” value [3, 14] was 50 µg/mL. The “MIC (μg/mL) S. marcescens” value [4, 15] was 12.5 µg/mL, the “MIC (μg/mL) E. coli BL21” value [5, 16] was 50 µg/mL and the “MIC (μg/mL) K. pneumonia” value [6, 17] was 25 µg/mL. The “MIC (μg/mL) P. aeruginosa” value [7, 18] was 12.5 µg/mL, the “MIC (μg/mL) C. diversus” value [8, 19] was 12.5 µg/mL and the “MIC (μg/mL) P. vulgaris” value [9, 20] was 12.5 µg/mL. For the same substance, the “MIC (μg/mL) E. cloacae” value [10, 21] was 50 µg/mL and the MIC [11] was 12.5 µg/mL.

For “PRT667 (DINECEQPGVCSGGQCTNTEGSYHCECDQGYIMVRKGHCQ; listed as Homo sapiens)”, the “MIC M. catarrhalis” value [1] was 50 µg/mL, the “MIC A. hydrophila” value [2] was 50 µg/mL and the “MIC P. mirabilis” value [3] was 25 µg/mL. The “MIC S. marcescens” value [4] was 50 µg/mL, the “MIC E. coli BL21” value [5] was 25 µg/mL and the “MIC K. pneumonia” value [6] was 50 µg/mL. For the same substance, the “MIC P. aeruginosa” value [7] was 12.5 µg/mL, the “MIC C. diversus” value [8] was 12.5 µg/mL and the “MIC P. vulgaris” value [9] was 12.5 µg/mL. For the same substance, the “MIC E. cloacae” value [10] was 12.5 µg/mL and the MIC [11] was 50 µg/mL.

For “PRT862 (CDCHPVGAAGKTCNQTTGQCPCKDGVTGLTCNRCAPGFQQSRSPVAPC; listed as Homo sapiens)”, the “MIC (μg/mL) M. catarrhalis” value [1, 12] was 12.5 µg/mL, the “MIC (μg/mL) A. hydrophila” value [2, 13] was 50 µg/mL and the “MIC (μg/mL) P. mirabilis” value [3, 14] was 50 µg/mL. For the same substance, the “MIC (μg/mL) S. marcescens” value [4, 15] was 25 µg/mL, the “MIC (μg/mL) E. coli BL21” value [5, 16] was 25 µg/mL and the “MIC (μg/mL) K. pneumonia” value [6, 17] was 50 µg/mL. For the same substance, the “MIC (μg/mL) P. aeruginosa” value [7, 18] was 12.5 µg/mL, the “MIC (μg/mL) C. diversus” value [8, 19] was 25 µg/mL and the “MIC (μg/mL) P. vulgaris” value [9, 20] was 12.5 µg/mL. The “MIC (μg/mL) E. cloacae” value [10, 21] was 12.5 µg/mL and the MIC [11] was 12.5 µg/mL.

“PRT931 (DIDECASNPCRKGATCINGVNGFRCICPEGPHHPSCY; listed as Homo sapiens)” gave an MIC [1, 12] of 12.5 µg/mL, an MIC [2, 13] of 25 µg/mL and an MIC [3, 14] of 50 µg/mL. For the same substance, the MIC [4, 15] was 12.5 µg/mL, the MIC [5, 16] was 25 µg/mL and the MIC [6, 17] was 25 µg/mL. It also gave an MIC [7, 18] of 50 µg/mL, an MIC [8, 19] of 50 µg/mL and an MIC [9, 20] of 25 µg/mL. For the same substance, the MIC [10, 21] was 12.5 µg/mL and the MIC [11] was 12.5 µg/mL.

With “PRT656 (DIDECEDYGDPVCGTWKCENSPGSYRCVLGCQPGFHMAPNGDCI; listed as Homo sapiens)” the “MIC M. catarrhalis” value [1] was 12.5 µg/mL, the “MIC A. hydrophila” value [2] was 12.5 µg/mL and the “MIC P. mirabilis” value [3] was 25 µg/mL. For the same substance, the “MIC S. marcescens” value [4] was 12.5 µg/mL, the “MIC E. coli BL21” value [5] was 12.5 µg/mL and the “MIC K. pneumonia” value [6] was 12.5 µg/mL. The “MIC P. aeruginosa” value [7] was 50 µg/mL, the “MIC C. diversus” value [8] was 12.5 µg/mL and the “MIC P. vulgaris” value [9] was 12.5 µg/mL. The “MIC E. cloacae” value [10] was 50 µg/mL and the MIC [11] was 50 µg/mL.
